No constants are given. Whether binding was seen depends on the method and setting. Some results given as binding are weak or reduced against the parent protein; the word gives no strength.
Assays:
Assay in all cases: Fluoppi (phase-separated fluorescent foci in cells); hAG-tagged autophagy adaptor and HA-Ash-6Ub transiently co-expressed in HeLa (WT, Penta KO, FIP200 KO, ATG5 KO, ATG9A KO) or HCT116 (WT, TBK1-/-) cells; foci formation and incorporation of a third protein into the foci read by immunostaining and confocal microscopy; some samples with 2 µM BX-795 for 15 h
hAG-p62 (human) = hAG-p62 (human) (UniProt Q13501)
hAG-NBR1 (human) = hAG-NBR1 (human) (UniProt Q14596)
hAG-OPTN (human) = hAG-OPTN (human) (UniProt Q96CV9)

By UniProt entry, the sequences of proteins in these tests, tags left out.
UniProt Q14596: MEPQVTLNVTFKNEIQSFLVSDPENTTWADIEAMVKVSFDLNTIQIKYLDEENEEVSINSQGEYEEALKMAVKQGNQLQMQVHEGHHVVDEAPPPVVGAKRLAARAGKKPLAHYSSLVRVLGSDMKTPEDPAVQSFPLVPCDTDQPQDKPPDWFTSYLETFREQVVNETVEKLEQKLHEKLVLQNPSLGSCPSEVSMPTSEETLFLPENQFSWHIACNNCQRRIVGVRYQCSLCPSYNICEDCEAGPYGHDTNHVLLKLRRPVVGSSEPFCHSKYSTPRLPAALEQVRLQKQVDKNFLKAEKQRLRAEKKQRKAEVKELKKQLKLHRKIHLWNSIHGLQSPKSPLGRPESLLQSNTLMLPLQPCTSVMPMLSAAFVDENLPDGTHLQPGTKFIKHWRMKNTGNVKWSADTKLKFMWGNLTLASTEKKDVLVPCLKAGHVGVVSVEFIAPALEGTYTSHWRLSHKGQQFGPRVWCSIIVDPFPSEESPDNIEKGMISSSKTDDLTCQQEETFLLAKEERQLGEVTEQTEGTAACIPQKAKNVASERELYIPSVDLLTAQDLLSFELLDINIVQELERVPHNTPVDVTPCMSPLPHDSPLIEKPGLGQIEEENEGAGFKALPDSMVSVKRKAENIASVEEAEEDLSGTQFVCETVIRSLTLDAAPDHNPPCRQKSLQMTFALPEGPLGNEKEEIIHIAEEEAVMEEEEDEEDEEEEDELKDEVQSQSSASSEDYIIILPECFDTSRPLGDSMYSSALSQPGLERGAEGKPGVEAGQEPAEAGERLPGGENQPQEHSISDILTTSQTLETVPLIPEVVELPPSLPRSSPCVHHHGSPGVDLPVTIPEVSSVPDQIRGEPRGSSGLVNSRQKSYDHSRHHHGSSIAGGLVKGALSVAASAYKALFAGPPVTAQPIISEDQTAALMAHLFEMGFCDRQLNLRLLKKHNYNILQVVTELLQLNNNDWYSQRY
UniProt Q96CV9: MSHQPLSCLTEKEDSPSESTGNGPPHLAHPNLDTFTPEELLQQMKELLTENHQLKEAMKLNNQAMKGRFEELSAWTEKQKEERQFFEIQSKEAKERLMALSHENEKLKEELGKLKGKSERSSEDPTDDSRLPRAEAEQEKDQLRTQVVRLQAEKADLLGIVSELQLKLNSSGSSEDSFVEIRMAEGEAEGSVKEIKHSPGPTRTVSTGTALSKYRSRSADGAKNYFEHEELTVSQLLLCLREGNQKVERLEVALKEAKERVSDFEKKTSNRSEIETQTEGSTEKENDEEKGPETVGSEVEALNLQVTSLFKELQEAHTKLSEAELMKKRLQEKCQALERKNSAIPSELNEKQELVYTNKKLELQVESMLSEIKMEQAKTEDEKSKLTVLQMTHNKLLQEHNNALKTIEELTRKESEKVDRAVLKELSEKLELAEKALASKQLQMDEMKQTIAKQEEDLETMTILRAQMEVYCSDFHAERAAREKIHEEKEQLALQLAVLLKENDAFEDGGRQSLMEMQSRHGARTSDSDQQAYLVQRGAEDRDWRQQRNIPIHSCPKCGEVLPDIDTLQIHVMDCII
UniProt Q676U5: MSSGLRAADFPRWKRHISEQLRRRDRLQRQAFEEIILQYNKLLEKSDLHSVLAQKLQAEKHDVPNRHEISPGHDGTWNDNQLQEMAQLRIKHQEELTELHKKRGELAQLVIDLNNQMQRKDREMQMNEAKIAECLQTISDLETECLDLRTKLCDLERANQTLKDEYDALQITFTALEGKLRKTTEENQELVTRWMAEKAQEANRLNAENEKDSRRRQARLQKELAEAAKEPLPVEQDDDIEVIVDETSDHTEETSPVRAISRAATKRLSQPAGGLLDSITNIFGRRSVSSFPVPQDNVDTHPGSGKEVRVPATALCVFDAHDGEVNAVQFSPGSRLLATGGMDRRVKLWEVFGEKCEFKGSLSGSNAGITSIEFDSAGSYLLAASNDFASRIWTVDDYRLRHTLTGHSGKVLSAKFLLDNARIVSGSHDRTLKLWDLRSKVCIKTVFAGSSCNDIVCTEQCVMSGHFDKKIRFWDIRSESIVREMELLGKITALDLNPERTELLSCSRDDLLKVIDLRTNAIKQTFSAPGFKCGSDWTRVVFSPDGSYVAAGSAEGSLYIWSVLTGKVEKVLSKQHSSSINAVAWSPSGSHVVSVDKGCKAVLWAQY
UniProt Q6ZNE5: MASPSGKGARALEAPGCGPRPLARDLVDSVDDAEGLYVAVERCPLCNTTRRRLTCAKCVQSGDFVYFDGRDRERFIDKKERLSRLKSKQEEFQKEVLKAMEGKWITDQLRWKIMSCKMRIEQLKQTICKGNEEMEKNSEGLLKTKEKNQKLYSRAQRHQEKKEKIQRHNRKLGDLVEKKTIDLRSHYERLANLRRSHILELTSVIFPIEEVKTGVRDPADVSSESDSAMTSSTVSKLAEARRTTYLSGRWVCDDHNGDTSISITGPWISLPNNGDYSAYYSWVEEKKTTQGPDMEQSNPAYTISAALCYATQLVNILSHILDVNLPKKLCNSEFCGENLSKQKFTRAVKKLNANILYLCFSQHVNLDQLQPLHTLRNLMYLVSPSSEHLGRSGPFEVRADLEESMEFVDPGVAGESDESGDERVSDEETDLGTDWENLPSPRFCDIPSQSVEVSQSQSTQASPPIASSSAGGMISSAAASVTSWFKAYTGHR

| Substance | binding (hAG-p62 (human)) | binding (hAG-NBR1 (human)) | binding (hAG-OPTN (human)) |
| --- | --- | --- | --- |
| 3FLAG-LC3A (from UniProt Q9H492 1-121) | binds | binds |  |
| ATG16L1 (from UniProt Q676U5 1-607) |  |  | no binding |
| 3FLAG-LC3C (from UniProt Q9BXW4 1-126) | binds | binds |  |

Further lines, results first:

| binding (hAG-p62 (human)) | binding (hAG-NBR1 (human)) | binding (hAG-OPTN (human)) | Substance |
| --- | --- | --- | --- |
|  | binds |  | 3FLAG-GABARAP (from UniProt O95166 1-117) |
| binds | binds |  | 3FLAG-GABARAPL2 (from UniProt P60520 1-117) |
|  |  | no binding | 3FLAG-ATG14 (from UniProt Q6ZNE5 1-492) |

— publication PMC7480101
